# According to article PMC9911399, “Two distinct binding modes provide the RNA-binding protein RbFox with extraordinary sequence specificity”:
# Substitutions are numbered along the chain they refer to; changes in the protein carry UniProt numbers. The list shows a part of the results.
# T1: RBFOX1 RRM RbFoxmut (Fox-RRM*) (Homo sapiens, UniProt Q9NWB1 109-208, R118D;E147R;N151S;E152T)
# T1 sequence: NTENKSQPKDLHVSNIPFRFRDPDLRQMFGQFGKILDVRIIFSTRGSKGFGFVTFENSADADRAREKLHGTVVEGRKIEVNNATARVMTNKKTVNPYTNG
# B1: UGCCUCC (DNA:RNA)
# RNA: GGGAGACCGGAAUUCAGAUUGUCCUGCCUCCUUAAAUCCCGUCGUAGCCACCA
# DNA 1: CAATCTGAATTCCGGTCTCCC
# DNA 2: TGGTGGCTACGACGGGATT
# B2: GGAAACG (DNA:RNA)
# RNA: B1 RNA with U25G, C27A, C28A, U29A, C31G
# DNA 1: CAATCTGAATTCCGGTCTCCC
# DNA 2: TGGTGGCTACGACGGGATT
# B3: GCUAAGG (DNA:RNA)
# RNA: GGGAGACCGGAAUUCAGAUUGUCCGCUAAGGUUAAAUCCCGUCGUAGCCACCA
# DNA 1: CAATCTGAATTCCGGTCTCCC
# DNA 2: TGGTGGCTACGACGGGATT
# B4: GACCCGG (DNA:RNA)
# RNA: B3 RNA with C26A, U27C, A28C, A29C
# DNA 1: CAATCTGAATTCCGGTCTCCC
# DNA 2: TGGTGGCTACGACGGGATT
# B5: CACUGCA (DNA:RNA)
# RNA: B1 RNA with U25C, G26A, C28U, U29G, C31A
# DNA 1: CAATCTGAATTCCGGTCTCCC
# DNA 2: TGGTGGCTACGACGGGATT
# B6: AACAACC (DNA:RNA)
# RNA: B1 RNA with U25A, G26A, C28A, U29A
# DNA 1: CAATCTGAATTCCGGTCTCCC
# DNA 2: TGGTGGCTACGACGGGATT
# B7: AUGCUUA (DNA:RNA)
# RNA: B1 RNA with U25A, G26U, C27G, C30U, C31A
# DNA 1: CAATCTGAATTCCGGTCTCCC
# DNA 2: TGGTGGCTACGACGGGATT
# B8: CGGUUCU (DNA:RNA)
# RNA: B1 RNA with U25C, C27G, C28U, C31U
# DNA 1: CAATCTGAATTCCGGTCTCCC
# DNA 2: TGGTGGCTACGACGGGATT
# B9: AGAUAAA (DNA:RNA)
# RNA: B3 RNA with G25A, C26G, U27A, A28U, G30A, G31A
# DNA 1: CAATCTGAATTCCGGTCTCCC
# DNA 2: TGGTGGCTACGACGGGATT
# B10: AAUGUGG (DNA:RNA)
# RNA: B3 RNA with G25A, C26A, A28G, A29U
# DNA 1: CAATCTGAATTCCGGTCTCCC
# DNA 2: TGGTGGCTACGACGGGATT
# B11: UUUAUAG (DNA:RNA)
# RNA: B3 RNA with G25U, C26U, A29U, G30A
# DNA 1: CAATCTGAATTCCGGTCTCCC
# DNA 2: TGGTGGCTACGACGGGATT
# B12: GAUGGUA (DNA:RNA)
# RNA: B3 RNA with C26A, A28G, A29G, G30U, G31A
# DNA 1: CAATCTGAATTCCGGTCTCCC
# DNA 2: TGGTGGCTACGACGGGATT
# B13: AUUUGUC (DNA:RNA)
# RNA: B3 RNA with G25A, C26U, A28U, A29G, G30U, G31C
# DNA 1: CAATCTGAATTCCGGTCTCCC
# DNA 2: TGGTGGCTACGACGGGATT
# B14: AACCCAA (DNA:RNA)
# RNA: B1 RNA with U25A, G26A, U29C, C30A, C31A
# DNA 1: CAATCTGAATTCCGGTCTCCC
# DNA 2: TGGTGGCTACGACGGGATT
# B15: UAUUGUC (DNA:RNA)
# RNA: B1 RNA with G26A, C27U, C28U, U29G, C30U
# DNA 1: CAATCTGAATTCCGGTCTCCC
# DNA 2: TGGTGGCTACGACGGGATT
# B16: ACGGAGG (DNA:RNA)
# RNA: B3 RNA with G25A, U27G, A28G
# DNA 1: CAATCTGAATTCCGGTCTCCC
# DNA 2: TGGTGGCTACGACGGGATT
# B17: GCAACCU (DNA:RNA)
# RNA: B3 RNA with U27A, A29C, G30C, G31U
# DNA 1: CAATCTGAATTCCGGTCTCCC
# DNA 2: TGGTGGCTACGACGGGATT
# B18: UUCAAAC (DNA:RNA)
# RNA: B1 RNA with G26U, C28A, U29A, C30A
# DNA 1: CAATCTGAATTCCGGTCTCCC
# DNA 2: TGGTGGCTACGACGGGATT
# B19: GGGUGUG (DNA:RNA)
# RNA: B3 RNA with C26G, U27G, A28U, A29G, G30U
# DNA 1: CAATCTGAATTCCGGTCTCCC
# DNA 2: TGGTGGCTACGACGGGATT
# B20: UUCAACC (DNA:RNA)
# RNA: B1 RNA with G26U, C28A, U29A
# DNA 1: CAATCTGAATTCCGGTCTCCC
# DNA 2: TGGTGGCTACGACGGGATT
# Target: T1, RBFOX1 RRM RbFoxmut (Fox-RRM*)
# Assay: EMSA; HiTS-Eq, 1 nM pool, 10 min; buffer printed only for the single-RNA assays: 10 mM Tris pH 7.5, 150 mM NaCl, 3.4 mM EDTA, 0.001% NP-40, 30 C
# Details: tags: His6 N-terminal (pET28a); label: 5' 32P
# Method in brief: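 Purified RbFox RRM, wild type or mutant, was incubated for 10 min in 50 µL with 1 nM of a 5′-radiolabelled RNA pool carrying 7 randomized nucleotides, whose flanks were annealed to DNA oligonucleotides, over a series of increasing protein concentrations. Unbound RNA was resolved on 8% native PAGE, cut out, reverse-transcribed, barcoded by PCR and sequenced on an Illumina HiSeq 2500. Relative association constants were derived from changes in read counts for each RNA species versus the control reaction and normalised to the cognate motif.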
row,Binder,binding signal
1,B1,0.155 KA relative to UGCAUGU
2,B2,0.0703 KA relative to UGCAUGU
3,B3,0.0793 KA relative to UGCAUGU
4,B4,0.0499 KA relative to UGCAUGU
5,B5,0.161 KA relative to UGCAUGU
6,B6,0.0392 KA relative to UGCAUGU
7,B7,0.167 KA relative to UGCAUGU
8,B8,0.102 KA relative to UGCAUGU
9,B9,0.0997 KA relative to UGCAUGU
10,B10,0.09 KA relative to UGCAUGU
11,B11,0.128 KA relative to UGCAUGU
12,B12,0.136 KA relative to UGCAUGU
13,B13,0.218 KA relative to UGCAUGU
14,B14,0.0716 KA relative to UGCAUGU
15,B15,0.197 KA relative to UGCAUGU
16,B16,0.109 KA relative to UGCAUGU
17,B17,0.0331 KA relative to UGCAUGU
18,B18,0.0619 KA relative to UGCAUGU
19,B19,0.441 KA relative to UGCAUGU
20,B20,0.0688 KA relative to UGCAUGU
